Patent US9226952B2, “Na/K-ATPase-derived peptide Src inhibitors and ouabain antagonists and uses thereof” (The University of Toledo, priority 2008, dated 2016)

What was measured:
Src in LLC-PK1 cells = experiment: Basal Src activity (pY418) in LLC-PK1 cells; type: cell-based, pig; conditions: LLC-PK1 cells transiently transfected, 24 h
His-Src = experiment: In vitro GST pulldown assay; type: binding; conditions: 5 μg GST fusion protein, purified His-Src

Substance | Src activity (pY418) in lysates of transfected cells (Src in LLC-PK1 cells) | binding to Src in GST pull-down (His-Src)
YFP-ND: YFP fusion of the N domain expressed from pEYFP-ND plasmid | reduced Src activity | –
ND1R: GST fusion protein, amino acid residue 436-594 of pig kidney Na/K-ATPase α1 subunit | – | not
YFP-CD3: YFP fusion of the third cytosolic domain expressed from pEYFP-CD3 plasmid | reduced Src activity | –
